From article PMC3438969 (The Journal of Biological Chemistry, 2012) come the findings set out here.

This test concerns the target T1, HscA SBD (substrate-binding domain, residues 389-616) (UniProt P0A6Z1 389-616).
T1 sequence (looked up): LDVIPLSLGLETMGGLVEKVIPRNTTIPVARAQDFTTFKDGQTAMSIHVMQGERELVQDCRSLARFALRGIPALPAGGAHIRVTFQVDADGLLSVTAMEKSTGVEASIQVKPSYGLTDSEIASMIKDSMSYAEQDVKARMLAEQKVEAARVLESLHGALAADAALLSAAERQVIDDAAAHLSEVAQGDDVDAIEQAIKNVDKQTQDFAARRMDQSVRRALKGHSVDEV
Nature of the test: NMR titration.

B1: apo-IscU (iron-sulfur cluster scaffold protein IscU) (natural protein, Escherichia coli)
chain: MAYSEKVIDHYENPRNVGSFDNNDENVGSGMVGAPACGDVMKLQIKVNDEGIIEDARFKTYGCGSAIASSSLVTEWVKGKSLDEAQAIKNTDIAEELELPPVKIHCSILAEDAIKAAIADYKSKREAK
B1: the binding result is listed as “binds”.
